# Laboratory results: article PMC9911399, “Two distinct binding modes provide the RNA-binding protein RbFox with extraordinary sequence specificity”
# Where a chain is given by its changes, count along the chain named. The list shows a part of the results.
# T1: RBFOX1 RRM (Homo sapiens, UniProt Q9NWB1 109-208)
# T1 sequence: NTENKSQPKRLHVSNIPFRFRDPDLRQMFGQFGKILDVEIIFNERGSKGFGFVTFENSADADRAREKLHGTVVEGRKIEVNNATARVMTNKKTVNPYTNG
# B1: AUAGAAU (DNA:RNA)
# RNA: GGGAGACCGGAAUUCAGAUUGUCCAUAGAAUUUAAAUCCCGUCGUAGCCACCA
# DNA 1: CAATCTGAATTCCGGTCTCCC
# DNA 2: TGGTGGCTACGACGGGATT
# B2: GAGUGGA (DNA:RNA)
# RNA: GGGAGACCGGAAUUCAGAUUGUCCGAGUGGAUUAAAUCCCGUCGUAGCCACCA
# DNA 1: CAATCTGAATTCCGGTCTCCC
# DNA 2: TGGTGGCTACGACGGGATT
# B3: AUGUGCC (DNA:RNA)
# RNA: B2 RNA with G25A, A26U, G30C, A31C
# DNA 1: CAATCTGAATTCCGGTCTCCC
# DNA 2: TGGTGGCTACGACGGGATT
# B4: CGGAGCU (DNA:RNA)
# RNA: B2 RNA with G25C, A26G, U28A, G30C, A31U
# DNA 1: CAATCTGAATTCCGGTCTCCC
# DNA 2: TGGTGGCTACGACGGGATT
# B5: GCUGCGU (DNA:RNA)
# RNA: B1 RNA with A25G, U26C, A27U, A29C, A30G
# DNA 1: CAATCTGAATTCCGGTCTCCC
# DNA 2: TGGTGGCTACGACGGGATT
# B6: GAAAGCC (DNA:RNA)
# RNA: B2 RNA with G27A, U28A, G30C, A31C
# DNA 1: CAATCTGAATTCCGGTCTCCC
# DNA 2: TGGTGGCTACGACGGGATT
# B7: UCGAGUU (DNA:RNA)
# RNA: B2 RNA with G25U, A26C, U28A, G30U, A31U
# DNA 1: CAATCTGAATTCCGGTCTCCC
# DNA 2: TGGTGGCTACGACGGGATT
# B8: CUUCAGU (DNA:RNA)
# RNA: B1 RNA with A25C, A27U, G28C, A30G
# DNA 1: CAATCTGAATTCCGGTCTCCC
# DNA 2: TGGTGGCTACGACGGGATT
# B9: ACAAUAC (DNA:RNA)
# RNA: B1 RNA with U26C, G28A, A29U, U31C
# DNA 1: CAATCTGAATTCCGGTCTCCC
# DNA 2: TGGTGGCTACGACGGGATT
# B10: CGCCUAC (DNA:RNA)
# RNA: B1 RNA with A25C, U26G, A27C, G28C, A29U, U31C
# DNA 1: CAATCTGAATTCCGGTCTCCC
# DNA 2: TGGTGGCTACGACGGGATT
# B11: GUCGUGC (DNA:RNA)
# RNA: B1 RNA with A25G, A27C, A29U, A30G, U31C
# DNA 1: CAATCTGAATTCCGGTCTCCC
# DNA 2: TGGTGGCTACGACGGGATT
# B12: CGAUACG (DNA:RNA)
# RNA: B1 RNA with A25C, U26G, G28U, A30C, U31G
# DNA 1: CAATCTGAATTCCGGTCTCCC
# DNA 2: TGGTGGCTACGACGGGATT
# B13: GGCUCGC (DNA:RNA)
# RNA: B2 RNA with A26G, G27C, G29C, A31C
# DNA 1: CAATCTGAATTCCGGTCTCCC
# DNA 2: TGGTGGCTACGACGGGATT
# B14: UGGAUUC (DNA:RNA)
# RNA: B2 RNA with G25U, A26G, U28A, G29U, G30U, A31C
# DNA 1: CAATCTGAATTCCGGTCTCCC
# DNA 2: TGGTGGCTACGACGGGATT
# B15: UAACUGC (DNA:RNA)
# RNA: B2 RNA with G25U, G27A, U28C, G29U, A31C
# DNA 1: CAATCTGAATTCCGGTCTCCC
# DNA 2: TGGTGGCTACGACGGGATT
# B16: UAAAUAC (DNA:RNA)
# RNA: B1 RNA with A25U, U26A, G28A, A29U, U31C
# DNA 1: CAATCTGAATTCCGGTCTCCC
# DNA 2: TGGTGGCTACGACGGGATT
# B17: UGGUUAC (DNA:RNA)
# RNA: B2 RNA with G25U, A26G, G29U, G30A, A31C
# DNA 1: CAATCTGAATTCCGGTCTCCC
# DNA 2: TGGTGGCTACGACGGGATT
# B18: UACCACC (DNA:RNA)
# RNA: B1 RNA with A25U, U26A, A27C, G28C, A30C, U31C
# DNA 1: CAATCTGAATTCCGGTCTCCC
# DNA 2: TGGTGGCTACGACGGGATT
# B19: UGAACUU (DNA:RNA)
# RNA: B1 RNA with A25U, U26G, G28A, A29C, A30U
# DNA 1: CAATCTGAATTCCGGTCTCCC
# DNA 2: TGGTGGCTACGACGGGATT
# B20: UGGACAG (DNA:RNA)
# RNA: B1 RNA with A25U, U26G, A27G, G28A, A29C, U31G
# DNA 1: CAATCTGAATTCCGGTCTCCC
# DNA 2: TGGTGGCTACGACGGGATT
# Target: T1, RBFOX1 RRM
# Experiment: EMSA; HiTS-Eq, 1 nM pool, 10 min; buffer printed only for the single-RNA assays: 10 mM Tris pH 7.5, 150 mM NaCl, 3.4 mM EDTA, 0.001% NP-40, 30 C
# Conditions: tags: His6 N-terminal (pET28a); label: 5' 32P
# Outline: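 A pool of RNA with 7 randomized nucleotides, 5′-radiolabelled and with DNA-annealed flanks, was equilibrated at 1 nM for 10 min in 50 µL with purified RbFox RRM, wild type or mutant, across increasing protein concentrations. Free RNA was separated by 8% native PAGE, excised, reverse-transcribed, barcoded by PCR and sequenced. Relative association constants were obtained from read-count changes of each RNA species versus the control reaction and normalised to the cognate motif.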
row,Binder,binding signal
1,B1,0.00326 KA relative to UGCAUGU
2,B2,0.00781 KA relative to UGCAUGU
3,B3,0.0173 KA relative to UGCAUGU
4,B4,0.0245 KA relative to UGCAUGU
5,B5,0.0224 KA relative to UGCAUGU
6,B6,0.00698 KA relative to UGCAUGU
7,B7,0.00811 KA relative to UGCAUGU
8,B8,0.0048 KA relative to UGCAUGU
9,B9,0.000248 KA relative to UGCAUGU
10,B10,0.00556 KA relative to UGCAUGU
11,B11,0.0206 KA relative to UGCAUGU
12,B12,0.00904 KA relative to UGCAUGU
13,B13,0.0155 KA relative to UGCAUGU
14,B14,0.0192 KA relative to UGCAUGU
15,B15,0.017 KA relative to UGCAUGU
16,B16,0.00799 KA relative to UGCAUGU
17,B17,0.0158 KA relative to UGCAUGU
18,B18,0.00077 KA relative to UGCAUGU
19,B19,0.0116 KA relative to UGCAUGU
20,B20,0.0221 KA relative to UGCAUGU
